Consider 1 compound from PubChem BioAssay (NCI).

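Step 1: Grow cells in 96-well plates. Step 2: Expose to compound for 48 hours at 5 concentrations. Step 3: Interpolate endpoints linearly; if unreached, use highest concentration. TGI: concentration producing complete growth inhibition.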 Some entries of the source have several records that differ or are many. Only these are listed. There may be further records. The tests behind the records often covered other concentration ranges, not given here; some values may only mark the edge of a range.

This assay has as its system MDA-MB-468 breast. The assay can be described thus: inhibition of tumour cell growth, NCI panel, 48 h.

Regarding `Cc1cc(C)cc(Nc2ccc([N+](=O)[O-])c(NCCN3CCOCC3)n2)c1`, the TGI was 2.93 nM and 1.69 µM.
